The list shows a part of the results. At the low end of the ranking, values are background and their order means little.

This assay addresses T1, GST-Rok (full length) (UniProt O34857).
T1 sequence: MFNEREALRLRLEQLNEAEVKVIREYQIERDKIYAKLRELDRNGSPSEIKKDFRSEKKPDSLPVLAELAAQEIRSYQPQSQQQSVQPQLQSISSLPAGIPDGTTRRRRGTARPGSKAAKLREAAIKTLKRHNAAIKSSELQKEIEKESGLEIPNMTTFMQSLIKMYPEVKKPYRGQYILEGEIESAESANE
The assay is described as follows: protein binding microarray.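 Note: rank score from −0.5 (least bound) to 0.5 (best bound).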 The note with it: Rok is a gene silencer of Bacillus subtilis; high values mean tight binding; most listed sequences are background and not binding sites; double strand, one strand shown.
The sequence CAGTAACA returned a binding signal of 0.0586 E-score.
On to CTGGAACA, for which the binding signal was -0.0188 E-score.
With AGCGGTCG the figure was -0.199 E-score; with CAGAAAAG, 0.0786 E-score.
On to GAACCAAA, for which the binding signal is -0.168 E-score.
The figure for GATGAAAC is -0.0235 E-score; for TCTAGCCA it is 0.0153 E-score; for CATAACGG it is 0.000347 E-score.
Take TCAGTAGA: the binding signal was 0.168 E-score.
With CCTCTATA the figure was 0.0395 E-score.
With GGACAATA the figure was -0.00756 E-score; with GTCTTGTA, 0.112 E-score.
With AGTTGCAA the figure was 0.224 E-score; with CACTAGAG, -0.0165 E-score.
On to GTCAGCAA, for which the binding signal is -0.0851 E-score.
With CACGAAAA, the binding signal was -0.0543 E-score.
For the sequence TGGATACA, the binding signal came out at 0.0909 E-score.
For CTGGACGA, the binding signal is -0.185 E-score.
The figure for CTGGAAAA is 0.00214 E-score.
GATCTACA: the binding signal is 0.369 E-score.
Regarding CCAGAAAG, the binding signal is -0.134 E-score.
With GCCCTCGC the figure was -0.356 E-score; with CGGAGTTA, -0.0511 E-score.
With AGCCAAGG the figure was -0.236 E-score; with CTAAGCGC, -0.287 E-score; with GACGGCCA, -0.223 E-score.
The figure for CCTGCTTA is -0.0682 E-score; for ATAGAGCA it is -0.0567 E-score; for CAGTGCCA it is -0.063 E-score.
Regarding ATCAGCAT, the binding signal is 0.0127 E-score.
CGTTAGTA had a binding signal of 0.294 E-score.
With GATTAGCA the figure was -0.0882 E-score; with AGCAGGGA, -0.258 E-score; with AATAACTG, 0.195 E-score.
The figure for AATGAGGA is -0.277 E-score; for ACTGGCCT it is -0.307 E-score.
For the sequence ATGGCTAC, the binding signal is -0.041 E-score.
AGTAACAT returned a binding signal of 0.242 E-score.
Regarding CAGTCAAA, the binding signal is -0.0848 E-score.
With AAACACAT the figure was 0.0776 E-score; with AGATGGCA, -0.192 E-score.
The figure for CGCAATTC is 0.137 E-score; for CACTAGTA it is 0.205 E-score.
With ACATTAGC the figure was 0.0617 E-score.
AATAATTA returned a binding signal of 0.271 E-score.
In turn, AAACTACC returned a binding signal of 0.475 E-score.
As for TCCTGAGA, the binding signal was -0.138 E-score.
With GCCCCTTA the figure was -0.367 E-score; with AGTTTCCC, -0.106 E-score; with ACGATTTA, 0.205 E-score.
For GGGTAGCA, the binding signal is -0.00107 E-score.
As to AAGAAGGT, the binding signal was -0.0806 E-score.
In the case of CACACTAC, the binding signal is 0.276 E-score.
Sequence AGAAACGC registered a binding signal of 0.00202 E-score.
On to ATCTTTAC, for which the binding signal came out at 0.185 E-score.
In turn, TAGGAAGA returned a binding signal of 0.116 E-score.
Regarding CTAGGTAC, the binding signal was determined as 0.156 E-score.
The figure for GGAGACCA is -0.109 E-score; for AGTACGTG it is 0.0625 E-score.
With ATCACCGG the figure was -0.0846 E-score; with ATTTAAAG, 0.00886 E-score; with GACCTTAA, 0.0835 E-score.
With ACCTACTC the figure was 0.0245 E-score.
In the case of CTCCTCTC, the binding signal was -0.241 E-score.
On to ACGTGTGA, for which the binding signal is 0.065 E-score.
Consider CGCGCCCC, for which the binding signal was -0.376 E-score.
Turning to AGGGCGGA, the binding signal is -0.341 E-score.
The figure for CTTCTACA is 0.312 E-score; for CTAGATTC it is 0.209 E-score.
With GCCTAACA the figure was -0.0735 E-score; with CGTACAAG, 0.121 E-score; with AATTCTCA, 0.0302 E-score.
The figure for GGCTTTCA is -0.186 E-score.
Consider GAGTTCGC, for which the binding signal was -0.0601 E-score.
Take ACTATAAG: the binding signal came out at 0.268 E-score.
With CAATCATC the figure was -0.219 E-score; with CATGTCTC, -0.079 E-score; with TATAACCA, 0.27 E-score.
Turning to CGCGCTAG, the binding signal was -0.013 E-score.
The figure for CTTTGTCC is -0.1 E-score; for AAGTTAGC it is 0.0629 E-score.
As to GGAACGGA, the binding signal is -0.372 E-score.
For GGAGTAAA, the binding signal is -0.112 E-score.
With TGGCTAAA the figure was 0.0785 E-score.
The figure for GACAGGGA is -0.0461 E-score.
As for GGTGAGAC, the binding signal is -0.0921 E-score.
With AAGAGGTG the figure was 0.0615 E-score.
For GGGATCGA, the binding signal is -0.152 E-score.
The figure for AGGTTTGA is -0.0183 E-score; for AGCAGGGG it is -0.17 E-score; for AAACCGCG it is -0.0168 E-score.
The figure for ACTCATAA is 0.0503 E-score; for AAACCTCT it is -0.01 E-score.
The figure for AACGACGG is -0.036 E-score; for AAGAGCCC it is -0.349 E-score.
As to CGCGGGCA, the binding signal is -0.233 E-score.
The figure for CAAGGTTC is -0.152 E-score.
With GACAAATC the figure was -0.0534 E-score.
With CCGCGACA the figure was -0.0846 E-score; with CGACGCCC, -0.42 E-score; with TCTCGAGA, 0.0626 E-score.
Sequence GATCGTAC returned a binding signal of 0.097 E-score.
With ACCCATGC the figure was -0.259 E-score; with CACCGATG, -0.0374 E-score.
The sequence CCTTACCG registered a binding signal of 0.0725 E-score.
With ACTCCAAT the figure was 0.00426 E-score.
CGGTACGA: the binding signal is -0.191 E-score.
With CAAATCGA the figure was 0.0608 E-score; with ACACTAAG, 0.0184 E-score; with CACTCATG, -0.211 E-score.
GAACAAGA: the binding signal was -0.0934 E-score.
The figure for ATCTCTAA is 0.0544 E-score; for AAGCGATG it is -0.0486 E-score; for GATGTACA it is 0.282 E-score.
With AGCGCAGA the figure was -0.24 E-score.
Sequence AGAAGTTG came in with a binding signal of 0.0065 E-score.
With AGAAATCG the figure was -0.0862 E-score.
With ACTGCTCC the figure was -0.0985 E-score.
The figure for ATGTGAAA is 0.138 E-score; for AAGATTCG it is -0.0404 E-score.
As to ACCAGTAG, the binding signal was determined as 0.308 E-score.
With ATCCAAGG the figure was -0.172 E-score; with CGGAGAGA, -0.157 E-score; with GAGTATAC, 0.223 E-score.
With ACGGCTAG the figure was 0.129 E-score.
Take CCCTGCGG: the binding signal was -0.313 E-score.
The figure for GTAAGAGA is -0.0178 E-score.
Regarding GGCTGTAA, the binding signal stood at 0.115 E-score.
With AGTCGAAT, the binding signal is -0.204 E-score.
The figure for AACTATCA is 0.417 E-score; for CTGCCTTC it is -0.18 E-score.
On to CCCAACGG, for which the binding signal is -0.0858 E-score.
The figure for ATTTGGCA is -0.0153 E-score.
With GAGTCCAC the figure was -0.263 E-score; with GACTAACA, -0.064 E-score.
With CTCCTTTA, the binding signal was -0.314 E-score.
With GATAGCAC the figure was 0.149 E-score.
The figure for ACAAGGTC is -0.165 E-score; for AGAAGCCT it is -0.216 E-score; for GTGGTAAC it is 0.0764 E-score.
With AATCCGAC, the binding signal is -0.25 E-score.
With ACCGTTGG the figure was -0.187 E-score.
With AAACTGGT the figure was 0.0427 E-score; with AATCCACA, 0.118 E-score; with CGACCCCC, -0.316 E-score.
For ACTGTCGC, the binding signal was -0.108 E-score.
In turn, CATTAATC gave a binding signal of 0.219 E-score.
Turning to CTGAACTA, the binding signal is 0.203 E-score.
Consider CGAACAAC, for which the binding signal was -0.0234 E-score.
The figure for AGCTCAAG is -0.0985 E-score; for TGCTTCCA it is -0.351 E-score; for CGTCATGA it is -0.0325 E-score.
With ACCCTCGG the figure was -0.309 E-score; with TTCAAAAA, -0.0631 E-score.
Regarding AAGGACAT, the binding signal is -0.14 E-score.
With CGGTCTAC the figure was 0.00728 E-score; with CGTGCGAC, -0.0915 E-score.
The figure for GAGTTGGA is -0.223 E-score; for ATTCCTCC it is -0.212 E-score.
Take ATGCAACC: the binding signal was -0.0472 E-score.
On to CCGCTTAC, for which the binding signal is -0.11 E-score.
The figure for CACACCCC is -0.447 E-score.
Consider CATTTGAA, for which the binding signal was -0.0598 E-score.
With CTTATATC the figure was 0.141 E-score; with CATATTTA, 0.324 E-score.
On to CCCTGGTA, for which the binding signal was -0.12 E-score.
With ATCCGGTA the figure was 0.137 E-score.
With CTTAGATC the figure was -0.00626 E-score; with ACATCTAC, 0.272 E-score.
With ATATCTGC, the binding signal turned out to be 0.221 E-score.
With GAGGCTGA the figure was -0.241 E-score.
With GATTCCTA the figure was 0.224 E-score.

For the origin of these results see PMC6212790.
